Hit rate of the full screen: of about 71,000 compounds, about 1,800 (2.5%) were called active. This list was built around the results that the source calls inconclusive (neither active nor inactive); the mix of calls is not that of the screen. Calls follow the shape of the dose curve; as a rule, active = well fitted activation curve with a large enough effect in the signal ratio, with a control signal flat (not every such curve was filed as active); inconclusive = small, poorly fitted or top-dose-only effect, or effect the other way, or a change in a side signal; inactive = flat fitted curve, though single readings scatter; the % refers to the signal ratio. Potencies beside an inconclusive call are fits to weak or partial responses and may not hold up.
Assay: Cell signaling CRE-BLA (Fsk stim); as to activity change, negative = inhibition: % of control where 0% means no effect
Settings: CHO CRE-bla reporter (cAMP response element driving beta-lactamase), forskolin EC10, beta-lactamase ratio; activity change, negative = inhibition: at 38.2 µM (top of the series) unless noted
Outline: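 Modulation of forskolin signalling: compounds in titration series added with EC10 NKH 477 to CHO cells carrying a CRE-driven beta-lactamase reporter, 3 h, 37C. CCF4 FRET ratio (460/530 nm, ex 405 nm) gives %activity and AC50.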
Potency is read from the fitted curve at half-maximal effect; tags tell the direction and shape of the fitted curve.

Structure (SMILES)	activity change, negative = inhibition	Potency
O=c1nc(-c2ccccc2)cn[nH]1	inactive: -2.12%	
COc1ccccc1N1CCN(CCN(C(=O)c2ccc(I)cc2)c2ccccn2)CC1	inactive: -14.7%	
COC(=O)c1ccccc1NC(=O)c1noc2c1CCC2		inconclusive: 10 µM [rising, single point]
Cc1noc(C)c1S(=O)(=O)N1CCC(C(=O)N2CCC(N3CCCCC3)CC2)CC1	inactive: -4.11%	
CCOc1ccc(C2c3c(oc4ccccc4c3=O)C(=O)N2CCCN2CCOCC2)cc1 (centres undefined)	inactive: -8.88%	
N#CCSc1ncnc2sc3c(c12)CCC3	inactive: 13.2%	
O=c1[nH]c2cc(Cl)cc(Cl)c2[nH]c1=O	inconclusive: -2.01%	
CSc1ccccc1N=Cc1nc(-c2ccccc2)oc1O		inconclusive: 10 µM [rising, single point]
COC(=O)Cn1cnc2sc(C)c(S(=O)(=O)N3CCC(C)CC3)c2c1=O	inconclusive: 4.18%	
COc1ccccc1C1C=C(c2ccc(Cl)cc2)Nc2nc(N3C(=O)CCC3=O)nn21 (centres undefined)		inconclusive: 10 µM [falling, partial curve]
COC(=O)C1=CNC=C(C(=O)OC)C1c1ccc(Cl)cc1		inconclusive: 10 µM [rising, single point]
Nn1c(SCC(=O)NC2CCCCC2)nnc1-c1ccccc1	inactive: -1.16%	
CC(C)=CCSc1nnc([C@@H](NC(=O)OC(C)(C)C)C(C)C)o1	inactive: 3.79%	
CCC(C(=O)N1CCN(S(C)(=O)=O)CC1)c1ccccc1 (centres undefined)	inactive: 3.98%	
Cc1nn(-c2ccccc2)c(N2CCCCC2)c1/C=N/O	inactive: 13.1%	
OC1(c2ccc(Cl)cc2)CCN(Cc2c[nH]c3ccccc23)CC1		inconclusive: 15.8 µM [falling, partial curve, poor fit]
COCC(=O)N1CCC(n2nnc3cc(F)ccc32)CC1	inactive: -2.26%	
O=C(OCC(=O)N1CCCC1)c1cncc(Br)c1		inconclusive: 3.98 µM [falling, single point]
O=C1CCCC2=C1C(c1ccco1)Nc1ccc3ccccc3c12 (centres undefined)	inactive: -2.11%	
CC1CCC/C(=C\Nc2ccc(O)cc2)C1=O (centres undefined)	inconclusive: 9.11%	
Cc1ccc(C)c(S(=O)(=O)c2c(N)n(/N=C/c3ccco3)c3nc4ccccc4nc23)c1		inconclusive: 1 µM [rising, full curve]
O=C(OCC1COc2ccccc2O1)c1ccccc1F (centres undefined)		inconclusive: 3.16 µM [falling, single point]
Cc1cccc(N2CCN(C(=O)Cn3sc4nc(C)cc(C)c4c3=O)CC2C)c1 (centres undefined)		inconclusive: 25.1 µM [falling, single point]
COc1ccccc1-n1c(=S)sc2c(=O)n(Cc3ccco3)c(SC)nc21		inconclusive: 3.98 µM [rising, partial curve]
CCOC(=O)N1CCN(Cc2nc3c(c(=O)n(C)c(=O)n3C)n2Cc2ccc(F)cc2)CC1		inconclusive: 10 µM [rising, partial curve]
CCOC(=O)N1CCC(NC(=O)c2cccc3c2C(=O)N(c2ccc(OC)cc2)C3)CC1		active: 5.01 µM
C=CCn1c(-c2ccc(OC)c(OC)c2)cs/c1=N\c1ccccn1		inconclusive: 7.94 µM [rising, partial curve]

Structure (SMILES)	activity change, negative = inhibition	Potency
CC(C)(C)c1cnnn1-c1ccc(NC(=O)c2ccc(Br)o2)cc1	inconclusive: 20.4%	
COc1ccccc1C(=O)N1CCN(C(=O)c2ccncc2)CC1	inactive: -0.78%	
COc1cc(NC(=O)c2ccc(COc3ccccc3Br)o2)cc(OC)c1OC		inconclusive: 0.631 µM [rising, full curve, poor fit]
COc1ccc(-c2cc3ccccc3n2CC(O)Cn2nc(C)cc2C)cc1 (centres undefined)	inactive: -0.113%	
CN(Cc1ccccc1)c1nc2c(c(=O)[nH]c(=O)n2C)n1CCOc1ccccc1		active: 5.01 µM
COC(=O)[C@@H](NC(=O)Nc1ccc(C(C)=O)cc1)C(C)C	inconclusive: 10.3%	
CC1(Cc2cn(CCC#N)c3ccccc23)OCCO1	inconclusive: 26.3%	
Cc1cccc(-n2cnc3cc(C(=O)N4CCCCC4)ccc32)c1	inconclusive: 20.6%	
CCCNC(=O)NC(=O)COC(=O)c1ccc(OC)c(S(=O)(=O)N2CCCc3ccccc32)c1	inconclusive: -26%	
CC(=O)Nc1ccc(N2CCOCC2)c(C(=O)Nc2cccc(C)c2)c1	inconclusive: 0.196%	
Cc1ccc2cc(C)c3nnc(SCC(=O)NCc4ccco4)n3c2c1	inconclusive: 29.4%	
CS(=O)(=O)N1CCc2cc(-c3csc(NC(=O)Cc4cccs4)n3)ccc21	inconclusive: -28%	
COc1ccc(-c2cc3nc(C)c(CCC(=O)NCc4ccco4)c(C)n3n2)c(OC)c1	inactive: 13.2%	
COC(=O)c1ccc(CSc2ncnc3c2oc2ccccc23)o1		active: 2.51 µM
Cc1ccc(SCc2cc(=O)[nH]c(N3CCN(Cc4ccccc4)CC3)n2)cc1	inconclusive: -1.77%	
Oc1ccc(-c2nc(-c3ccc(F)cc3)c(-c3ccncc3)[nH]2)cc1		inconclusive: 15.8 µM [rising, partial curve, poor fit]
CCNc1ccc(C(=O)OCC)cc1NC(=O)c1cc(S(=O)(=O)N2CCOCC2)ccc1C	inactive: 1.57%	
CC(=O)c1c(C)nc2nonc2c1N	inconclusive: -7.88%	
CC(CC(=O)O)(CC(=O)O)c1ccccc1	inactive: 7.69% [at 7.6 µM]	
O=C1c2ccccc2C(Nc2cccnc2)N1Cc1ccc2c(c1)OCO2 (centres undefined)	inactive: 9.79%	
C[N+]1(C)CCO[C@](O)(c2ccccc2)C1		inconclusive: 5.01 µM [rising, single point]
Nc1nc(N2CCOCC2)nc2ccccc12		inconclusive: 5.01 µM [rising, single point]
CCOC(=O)c1ccccc1NC(=O)c1c(F)c(F)c(F)c(F)c1F	inconclusive: -3.59%	
O=C1O/C(=C\Br)CC[C@@H]1c1cccc2ccccc12	inactive: 0.857%	
COc1cccc(C(c2nnnn2Cc2ccc(F)cc2)N2CCC(C(N)=O)CC2)c1OC (centres undefined)	inconclusive: -20.8%	
Cc1cc(C)cc(Nc2cc(=O)n(C3CCCCC3)c(=O)[nH]2)c1	inconclusive: -0.433%	
O=C(O)CN(CCN(CC(=O)O)CC(=O)O)CC(=O)O.[Mn]	inactive: 14.1% [at 7.6 µM]	

Reference: PubChem BioAssay AID662 (National Center for Advancing Translational Sciences (NCATS), 2007)
